# PubChem BioAssay AID1240 (Sanford-Burnham Center for Chemical Genomics, 2008)
# About 800 (1.6%) of roughly 50,000 compounds showed an effect of 50% or more. The list shows a part of the results.
# Molecular target: Bcl-2-like protein 10 (Homo sapiens) (UniProt Q9HD36)
# Experiment: Phenotype converters, Bcl-B/TR3 peptide binding displacement, primary biochemical FP (AID 1240);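 further: 0% = Bcl-B with tracer peptide and DMSO and 100% = tracer peptide lacking Bcl-B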
# Settings: GST-Bcl-B / FITC-TR3 peptide fluorescence polarization; stronger effect = higher value; compound at 3.75 mg/L
# Sequence of UniProt Q9HD36 (Q9HD36 whole entry, looked up): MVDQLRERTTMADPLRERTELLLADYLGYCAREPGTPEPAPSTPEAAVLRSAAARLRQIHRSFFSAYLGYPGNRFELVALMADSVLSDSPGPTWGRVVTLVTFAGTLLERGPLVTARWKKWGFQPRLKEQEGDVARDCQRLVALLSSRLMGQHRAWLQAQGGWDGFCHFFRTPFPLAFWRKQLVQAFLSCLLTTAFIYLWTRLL
row,Compound,displacement
1,O=C(NCc1ccncc1)C1CCCC1,-7.7%
2,O=C1OC(c2ccccc2F)=N/C1=C\c1ccc2c(c1)OCO2,80%
3,CC(C)C1=NN2C(=N)/C(=C/c3ccc(OCc4ccc(F)cc4)cc3)C(=O)N=C2S1,6.4%
4,O=[N+]([O-])c1ccc(-c2[nH]nc(-c3ccccc3)c2-c2nc3ccccc3[nH]2)cc1,12.7%
5,O=C(N/N=C/c1ccc(-c2ccc(I)cc2)o1)c1ccccn1,-8%
6,O=C(O)c1ccc(C=Nc2cccc3ccccc23)cc1,46.4%
7,Cc1ccc(C(=O)NN2C(=O)C3C4C=CC(C5CC45)C3C2=O)cc1 (centres undefined),-18.2%
8,COc1ccc(/C=C2\SC(=S)N(c3cccc(F)c3)C2=O)c(OC)c1,12.2%
9,O=C(C[n+]1ccc(NC(=O)c2ccccc2)cc1)c1ccccc1,10%
10,COc1ccc2c(c1)C(=O)/C(=C/c1cccc(I)c1)CC2,10.5%
11,COc1cc(/C=N/NC(=O)c2ccncc2)cc(OC)c1O,10%
12,COc1ccccc1NC(=O)c1ccc(NC(=O)C(C)(C)C)cc1,-4.6%
13,C=CCn1c(SCC(=O)OCC)nnc1-c1ccc([N+](=O)[O-])cc1,-4.9%
14,CC(C)=C1C2C=CC1C1C(=O)N(c3ccc(C)cc3[N+](=O)[O-])C(=O)C21 (centres undefined),12.1%
15,C#CCSc1nc2ccccc2n1C(=O)c1sc2ccccc2c1Cl,-1%
16,CCN1C(=O)/C(=C\c2cccc(OC)c2OC)SC1=S,-0.3%
17,CCOc1ccc(NC(=O)C(NS(=O)(=O)c2ccc(C)cc2)C(C)C)cc1 (centres undefined),11%
18,COC(=O)C1=C(C)NC2=C(C(=O)CCC2)C1c1ccc(OCc2ccc([N+](=O)[O-])cc2)c(OC)c1 (centres undefined),10%
19,O=c1oc(-c2ccc(Cl)c(Cl)c2)nc2ccccc12,-0.6%
20,COC1CCCCC1N1CCN(C(=O)c2ccco2)CC1 (centres undefined),1.2%
21,Cc1[nH]n(-c2nc(-c3ccccc3)cs2)c(=O)c1N=Nc1ccc(C(=O)O)cc1,4.5%
22,Cc1cc(C(=O)Nc2ccc(C(N)=O)cc2)ccc1[N+](=O)[O-],2.6%
23,COc1ccc(S(=O)(=O)Nc2ccc(Br)cc2C)cc1,11.4%
24,CCOC(=O)C1=NN(C(=O)c2cccc(C)c2)C(O)(c2ccc(Cl)cc2)C1 (centres undefined),-0.2%
25,O=C(/C=C/c1ccccc1)Nc1nnc(-c2ccccc2)s1,7.6%
26,Cc1ccc(OCCCCn2ccnc2)c(Cl)c1,-2%
27,COc1ccc(/C=C2/N=C(c3cccc(C)c3)N(c3ccc(O)cc3)C2=O)cc1OC,11%

row,Compound,displacement
1,O=C(NCCCn1ccnc1)c1ccccc1Br,-8.7%
2,CC(C)(C)C(=O)Nc1ccc(-c2nc3ccccc3o2)cc1,2.6%
3,CC1(C)CC(=O)C(N=Nc2ccc3[nH]c(=O)[nH]c3c2)=C(O)C1,-26%
4,CCCCNC(=O)/C(=C/c1ccc(-c2cccc([N+](=O)[O-])c2)o1)NC(=O)c1ccc(OC)cc1,9.9%
5,CC1CCOP(=O)(C(Nc2ccc(Br)cc2)c2ccc(Br)cc2)O1 (centres undefined),-11.6%
6,O=C(CCCOc1ccccc1)Nc1ccc2c(c1)OCO2,-0.7%
7,COc1cccc(NC(=O)C(=O)N/N=C/c2ccc(C(=O)O)cc2)c1,6.3%
8,COC(=O)C(NC(=O)CCC1CCCCC1)C12CC3CC(CC(C3)C1)C2 (centres undefined),4.1%
9,O=C(/C=C/c1cccc([N+](=O)[O-])c1)Nc1ccc(N2CCOCC2)cc1,4.6%
10,CC(=O)OCCCNc1cc(N2CCCC2)ccc1[N+](=O)[O-],-4%
11,COC(=O)c1ccc(-c2nc3nnc(C)n3[nH]2)cc1,5.9%
12,O=C(CSc1ccccn1)Nc1ccc([N+](=O)[O-])cc1,0.6%
13,O=c1[nH]c(N/N=C/C2CC=CCC2)nnc1-c1ccccc1 (centres undefined),-19.2%
14,N#Cc1ccccc1N=C1CCCN1Cc1ccccc1,17.4%
15,CC(C)(C)c1ccc(C(=O)NNC(=O)c2ccc(Cl)cc2Cl)cc1,-9.3%
16,Cc1c(C(c2cc(Br)ccc2O)c2c(C)n(C)n(-c3ccccc3)c2=O)c(=O)n(-c2ccccc2)n1C,-9.1%
17,O=C(O)CN1C(=O)/C(=C2\SC(=S)NC2=O)c2ccccc21,36%
18,Cc1ccc2nc(NC(=O)c3c(-c4ccccc4)noc3C)sc2c1,2.1%
19,CC(=O)Nc1ccc(NC(=O)c2ccccc2-c2ccccc2C(=O)O)cc1,-5.9%
20,CN(C)c1ccc(C2/C(=C(\O)c3ccc(F)cc3)C(=O)C(=O)N2CCCCCC(=O)O)cc1 (centres undefined),9.1%
21,COc1ccc(Br)cc1C(=O)Nc1nc(-c2ccccc2)cs1,-2.9%
22,COc1ccc(C2/C(=C(/O)c3ccc(C)cc3)C(=O)C(=O)N2CCCn2ccnc2)cc1 (centres undefined),6.3%
23,Cc1c(C)c2ccc(OC(C)C)c(C)c2oc1=O,-0.7%
24,Oc1c(/C=C2/C=Nc3ccccc32)sc(=S)n1-c1cccc(C(F)(F)F)c1,2.5%
25,Cc1ccc(N2C(=O)c3ccc(-c4nc5c(C)cccc5c(=O)o4)cc3C2=O)cc1C,-2.5%
26,O=P(CCCO)(c1ccccc1)c1ccccc1,20.9%
27,N#CC(C#N)=NNc1ccccc1C(=O)O,-0.9%
